In the RNAGym collection of RNA variant scans (doi:10.1073/pnas.2313332121):
Variants at the floor of the assay are shown more often than the library holds them.

B1: TPR 5TU (parent)
chain: GGAUCUUCUCGAUCUAACAAAAAAGACAAAUCUGCCACAAAGCUUGAGAGCAUCUUCGGAUGCAGAGGCGGCAGCCUUCGGUGGCGCGAUAGCGCCAACGUUCUCAACUAUGACACGCAAAACGCGUGCUCCGUUGAAUGGAGUUUAUCAUG

Variants of: B1
Experiment: polymerase ribozyme fitness, log enrichment relative to wild type (log ratio); higher = more active; in vitro selection for triplet polymerase activity
Summary of the method: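 In triplicate, a single round of in vitro selection was run on each mutant library, PCR-built and transcribed, covering one subunit of a heterodimeric triplet polymerase ribozyme. Frozen incubation at −7 °C followed annealing with a biotinylated primer, partner subunit and triplets, and extended constructs were then gel-excised, streptavidin-captured and taken through RT-PCR. Fitness is the logarithm of genotype enrichment over wild-type enrichment, from inverse-variance-weighted replicate averages of Illumina-sequenced inputs and outputs. […] only genotypes with ≥10 input reads and ≥1 read per output were kept.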

| Variant | polymerase ribozyme fitness (log ratio) |
| --- | --- |
| C5U C38U C85G U101C | -1.38 |
| U6A G50U U53A C99G A115U | ≤ -4.2 |
| C5U A22U C57U C87U C93G C132A G140C | ≤ -4.2 |
| U6A U44A C57G G70A G80A C85U G126U C131G | ≤ -4.2 |
| C5G C18G U55A U61G C96A A119U U134C | ≤ -4.2 |
| C5G U31A C54U G67C A110U A121G | ≤ -4.2 |
| U6A C35A C63U C69U C76A G83C | ≤ -4.2 |
| U6A A28G G59A C93U C99G C108A G140A G141U | ≤ -4.2 |
| C5U U13A C57G G141U | -1.34 |
| C5U G84A U90C A121U G126C U134G A137G | ≤ -4.2 |
| C5G C32G C72U A73G A91G A119U G141A | ≤ -4.2 |
| C5U A39G C87G G94A U148G | ≤ -4.2 |
| U6A C36A G133C | ≤ -4.2 |
| U6A C18G U56A A106G | -0.358 |
| C5G U6C C8G G80A G92U | ≤ -4.2 |
| U6A C57G C96U G141C | -0.945 |
| U6A A17G G50C G68A G80C C93G C96A U104G G140U A142C | ≤ -4.2 |
| C5G U55A G68C G86C U90A | ≤ -4.2 |
| C5U A22U U45A G65C C93U | ≤ -4.2 |
| C5G G62A G84A U90C G140C U151G | ≤ -4.2 |
| U6A G50A A89U G92U A137G | -3.34 |

| Variant | polymerase ribozyme fitness (log ratio) |
| --- | --- |
| C5U C51G G62A G74U C76G C95U C96U | ≤ -4.2 |
| U6A C51A G58C C63G C93G U104G U145A U148C | ≤ -4.2 |
| U6A A21G A22U A26U A30U U44G G50U A97G C103A U135A | ≤ -4.2 |
| C5G C96U | -0.763 |
| C5U A23G C32A C57G G59A C87G C95A U146A | ≤ -4.2 |
| C5U A20U C93A A98U A121U C125G A137U C149U | ≤ -4.2 |
| C5U A12C A26C G42U A52G U61G C85U U104G | ≤ -4.2 |
| U6A A12U A28U U90G C99U C105A | ≤ -4.2 |
| C5G C132U U146G | -3.69 |
| C5G U9A A37C A52C U56A G84U U135A A150G | ≤ -4.2 |
| C5U U45A U82G G83U C114U | ≤ -4.2 |
| C5G C87A G128A | ≤ -4.2 |
| C5U U7A G88U U148C A150C | ≤ -4.2 |
| C5G C10G A12U A21U A37G A47G C54A G92C A107C C114A U139C G140A U146G | ≤ -4.2 |
| C5U U15G A19U C35A G68A C85U C108A | ≤ -4.2 |
| C5U U53A C75U G88C | ≤ -4.2 |
| U6A C8A A19U A20U C72U U77A U101A | ≤ -4.2 |
| C5U U7G G11C A30U A47C C54G C57U A64C G92C | ≤ -4.2 |
| C5U C10G A16G A30C G59A C87U G126C | ≤ -4.2 |
| U6A A28C U44A G92U G100C C125U G143C U146A | ≤ -4.2 |
| C5U C43U U56G C57U G58U C69A C76U G80U C93A A106U C118A U151G | ≤ -4.2 |

| Variant | polymerase ribozyme fitness (log ratio) |
| --- | --- |
| C5G U53A G94A C125A U139C A142C | ≤ -4.2 |
| C5U A26G U53A C72U G74C G86U C118U C123A A150U | ≤ -4.2 |
| C5U A66G C87U | ≤ -4.2 |
| C5U G25U C85A A106G C125A U130G U139C | ≤ -4.2 |
| C5U C10A A47C G58A A73U A91U C95G C118A G124A | ≤ -4.2 |
| C5U G46A A52G C85U A107U C118A A137U | ≤ -4.2 |
| C5G C18A A20C C93G U101G C131G | ≤ -4.2 |
| C5U G84A C105U A113C C129A | ≤ -4.2 |
| C5G C14G C27U U53A A66G A91U | ≤ -4.2 |
| C5G C57U G67U U78G U127G | ≤ -4.2 |
| C5G C27G G68A G86C A98C G133U G141U | ≤ -4.2 |
| C5G U6C G25A U53A G67C C108U U127G | ≤ -4.2 |
| C5U A19G U77A C95U | ≤ -4.2 |
| C5U U7A C54G U82G G94A U104C G117A A119U G124U G136A U151G | ≤ -4.2 |
| U6A A39U U101G C118G | ≤ -4.2 |
| C5G U56A G94C A120G | -1.95 |
| C5G C14G A49G | -3.17 |
| C5U U78G U82G C95U A97G A121U G141U | ≤ -4.2 |
| C5U A19U C38U A41U A49U A52U G80A G84U C93A A98C G141U C149G | ≤ -4.2 |
| U6A G11U A29U U44A G62A G80C C99G G143U | ≤ -4.2 |
| U6A A12C G58U A91C A98U C103G C131U | ≤ -4.2 |

| Variant | polymerase ribozyme fitness (log ratio) |
| --- | --- |
| U6A G11U C54G C87G C95G | ≤ -4.2 |
| C5U C93U | 0.375 |
| C5G C10A G11A A37U G70A C123G U134C | ≤ -4.2 |
| C5U A49C G81U G94A A115G | ≤ -4.2 |
| C5G C10U A49G U56A G74C C85U U90G C93U G100U A115C G141A | ≤ -4.2 |
| C5U A28U C96U G143C | ≤ -4.2 |
| C5G C87G | ≤ -4.2 |
| U6A A12U U15A C38A A40C C93G C95U A107C U144G U146A | ≤ -4.2 |
| C5G G70U C87A A119U | ≤ -4.2 |
| C5U C14G C85U C93G A138G | ≤ -4.2 |
| U6A A49G U55G A73C C93A C99G | ≤ -4.2 |
| C5U C8G A12G A19U U55G C87A C96G A147C | ≤ -4.2 |
| C5U A28U C54G G81A G141C | ≤ -4.2 |
| U6A A16C C27U U31G A52C C54G C118U | ≤ -4.2 |
| U6A U13C A20U A22U U102C C108U A110C A137C | ≤ -4.2 |
| U6A A52G U56G C85A C131U A137G | ≤ -4.2 |
| C5G C54A G65C A66G C85U | ≤ -4.2 |
| C5G G25U U55A C93A A98G U145C A147C | ≤ -4.2 |
| C5U U55G C79G C87A A97U A106C | ≤ -4.2 |
| U6A A26G U77C U78G G94A C96U A138U | ≤ -4.2 |
| C5U A22C C79G G86C C99U | ≤ -4.2 |
